Measured values taken from the supplement of paper PMC3334620.
The full ranking holds about 33,000 sequences; the median of “E-score (-0.5 to 0.5)” is about -0.013, and the highest 2% start at about 0.3. Some of the results follow.

target: T1, Msn1 (UniProt P22148); assay: PBM E-score (8-mer binding enrichment) (E-score (-0.5 to 0.5)); higher = stronger / more preferred TF binding; most listed sequences are background and not binding sites; conditions: protein concentration: 200 nM; construct: GST-full length
T1 sequence: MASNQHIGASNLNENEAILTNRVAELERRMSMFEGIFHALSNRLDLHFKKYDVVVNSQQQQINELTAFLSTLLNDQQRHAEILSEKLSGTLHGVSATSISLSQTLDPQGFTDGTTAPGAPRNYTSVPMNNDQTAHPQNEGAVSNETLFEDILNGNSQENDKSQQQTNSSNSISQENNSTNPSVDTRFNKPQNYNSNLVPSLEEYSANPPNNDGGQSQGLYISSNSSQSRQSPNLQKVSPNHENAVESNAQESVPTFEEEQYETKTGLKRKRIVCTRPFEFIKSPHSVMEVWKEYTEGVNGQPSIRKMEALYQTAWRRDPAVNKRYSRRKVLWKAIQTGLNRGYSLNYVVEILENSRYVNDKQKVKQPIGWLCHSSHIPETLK
Outline: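 Detection of bound protein used fluorescent anti-GST, with scans normalised by masliner. The proteins were GST-tagged yeast transcription factors applied at about 100-200 nM to universal all-10-mer Agilent arrays made double-stranded by primer extension. Each ungapped eight-base word, pooled with its reverse complement, was scored with an E-score from the Universal PBM Analysis Suite.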

Sequence	PBM E-score
ACACATAA	0.217
GCACGCAC	-0.213
TCACGCGA	0.123
AACGGGAG	0.0589
CAGATGGG	-0.136
ACCATCGT	-0.0409
ACCGAATA	-0.0139
CAAGACGG	-0.0583
GTCCCGGA	0.29
CACCATGC	-0.218
AGCACAAA	0.118
GAGTTTTA	0.179
CCCGACGA	0.138
CCTAGTAG	0.0026
ATTGATAA	0.071
CCTGGTAA	-0.126
CGGCGTTC	-0.103
GCGGAATA	0.11
GCATGAAC	0.11
ATAACGTA	0.0774
ATGCTGTG	0.0855
CACGAACA	0.24

Sequence	PBM E-score
CGCCGGGA	-0.0452
GCGCTCCC	-0.231
CATGTATA	0.141
ATGTTTGA	0.0858
TCCTGGCA	0.0904
GCTTAGAC	0.054
CCAAGGCC	-0.165
ATGAGTGG	-0.261
GCGAATCA	0.0762
CCCCTGGA	-0.154
CAATAAAG	0.138
ACGCGCAT	0.0251
TAAGAGCA	0.0294
ACGATCGC	0.0874
AGCGAACA	0.0751
CTACTGGA	0.0395
TCCGTGAA	0.0831
CACTTGAG	-0.0378
GTAAAGGA	0.0665
ACCCCCTA	-0.383
AGGGACAA	0.487
AGATATCC	-0.101

Sequence	PBM E-score
AAATGATT	0.276
ATGTCAGA	0.265
TCCTTGCA	0.0515
AGCCCCCA	-0.369
GTTTCGAA	0.0695
AGGTCTCG	-0.156
GCAGAACA	-0.0343
GTACGAAC	0.311
GCGAGGCC	-0.208
ACCAACCG	0.00056
GACCAGAA	0.0209
GGGCCTTA	-0.168
GCCGGGCC	-0.238
ACGAATAA	0.197
GTCGGGGA	-0.0863
GACTCTGA	-0.0479
TGGATGAA	-0.087
ACTTACGC	0.0338
CGCCCCCG	-0.225
AAGGCCCC	-0.257
GCAGGCGC	-0.112
GCGCACGC	-0.227

Sequence	PBM E-score
ATTCGAAC	0.143
AGGGAGCC	-0.283
ACAATCAC	0.131
CAATGGTA	0.0972
CTGGCTAA	-0.0239
ACTGTGTC	0.217
ACGAACAA	0.269
AATTAGGG	-0.126
CGGGGACG	-0.152
AGTGTAAC	-0.108
GCCACACA	-0.0564
CACGCACA	-0.044
GAAGAATA	-0.141
CCGAGGAG	-0.0868
CGGAGTAG	0.0939
AGATAGCT	-0.113
GACAATTA	0.426
ACGAGGCG	0.0795
AAGAATAC	0.00255
ATACTCGG	0.179
